# Where “and” joins values, the source holds several entries; their conditions need not be identical. Identical values can stand only once. The whole screen tested about 420,000 compounds, of which about 50,000 (12%) were called active. Inconclusive results, whose numbers are uncertain, are shown with a selection of clear calls. Calls follow the shape of the dose curve; as a rule, active = well fitted inhibition curve with a large enough effect; inconclusive = small, poorly fitted or top-dose-only effect; inactive = flat fitted curve, though single readings scatter. Potencies of inconclusive entries are doubtful fits and often do not repeat.
# Test: qHTS for Inhibitors of human tyrosyl-DNA phosphodiesterase 1 (TDP1): qHTS in cells in presence of CPT; also: nearly all actives have a fitted effect of over 55% in size
# Settings: chicken DT40 Tdp1-/-;hTDP1 cells + 20 nM CPT, ATP luminescence, 48 h; activity change, negative = growth inhibition: at 46.2 µM (top of the series) unless noted
# In short: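 Chicken DT40 Tdp1-/- cells complemented with human TDP1, 400 cells/well, exposed to compounds plus 20 nM camptothecin for at least 48 h at 37 C; viability read as ATP content by CellTiter-Glo luminescence.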
# % is scaled to controls: 0 for no effect and ±100 for the full control effect; potency is read from the fitted curve at half-maximal effect; tags tell the direction and shape of the fitted curve.
Compound,Potency,"activity change, negative = growth inhibition"
CCCc1nnc(SCC(=O)Nc2nc(C)cs2)n1CCOC,inactive,
CC1CCN(c2c(NCC3CCC(C(=O)NCCc4ccc(Cl)cc4)CC3)c(=O)c2=O)CC1 (configuration not stated),"inconclusive: 29.1 µM [inhibitor, partial curve, poor fit]",
Cc1ccc(-n2nnc3c(sc4nc(C)c(C)cc43)c2=O)cc1Cl,inactive,
O=C(Cn1nc(-c2ccccc2)ccc1=O)Nc1ccc(NC(=O)c2ccccn2)cc1,"inconclusive: 9.2 µM [inhibitor, partial curve, poor fit]",
CCN(CC)C(=O)c1c(Cl)nc(C)c([N+](=O)[O-])c1C,inactive,
Cc1ccc(C)c(NC(=O)C2CCCN(S(=O)(=O)c3c(C)noc3/C=C/N(C)C)C2)c1 (configuration not stated),"inconclusive: 20.6 µM [inhibitor, single point] and inconclusive: 29.1 µM [inhibitor, single point]",
CSc1ncccc1C(=O)OCC(=O)N1CC2(C)CC1CC(C)(C)C2 (configuration not stated),"inconclusive: 29.1 µM [inhibitor, single point]",
CCOc1cc(CNCc2ccncc2)cc(Br)c1OCc1ccccc1F,"inconclusive: 16.4 µM [inhibitor, single point]",
CCOc1ccc(N(C)S(=O)(=O)c2ccc3c(c2)C(C)(C)C(=O)N3C)cc1,"inconclusive: 23.1 µM [inhibitor, single point]",
CCOc1ccc(N2CC(c3nc(-c4cc(OC)c(OC)c(OC)c4)no3)CC2=O)cc1 (configuration not stated),"inconclusive: 29.1 µM [inhibitor, single point]",
Cn1c(=O)oc2cc(S(=O)(=O)CCC(=O)NCc3ccccc3)ccc21,inactive,
CCCCC1=CC2=C(c3ccco3)C(=O)C(C)(OC(=O)c3ccc(OC)cc3)C(=O)C2=CN1CC1CC1 (configuration not stated),active: 8.2 µM,
CCOC(=O)C1CCCN(S(=O)(=O)c2ccc(S(N)(=O)=O)cc2)C1 (configuration not stated),inactive,
COC(=O)c1c(N2C(=O)CC(Sc3ccccc3C(=O)O)C2=O)sc(C)c1C (configuration not stated),"inconclusive: 23.1 µM [inhibitor, single point]",
O=C(c1csnn1)N1CCC2(CCN(Cc3ccccc3)CC2)CC1,"inconclusive: 0.116 µM [inhibitor, full curve]",
O=C(NC1CCCC1)c1c[nH]c2ccc(S(=O)(=O)Nc3cccc(C(F)(F)F)c3)cc2c1=O,"inconclusive: 23.1 µM [inhibitor, single point]",
Nc1nnc(SCC(=O)Nc2ccc3c(c2)OCCO3)s1,"inconclusive: 14.6 µM [inhibitor, partial curve]",
C[C@@H]1COC(=O)CCC/C=C\C[C@@H](CC(=O)N(CCO)Cc2ccccc2)C(=O)N1,inactive,
CCc1nc2ccc(C(=O)NCCCn3ccnc3)cn2c1N(C)Cc1ccc(OC)cc1,"inconclusive: 25.9 µM [inhibitor, single point]",
COC(=O)c1ccc(CN2CCCC(CCC(=O)NCc3ccc(C)o3)C2)cc1 (configuration not stated),"inconclusive: 29.1 µM [inhibitor, single point]",
CC(=O)Nc1ccc(S(=O)(=O)N(Cc2cccnc2)Cc2cc3ccccc3[nH]c2=O)cc1,active: 16.4 µM,
Cc1cccc(NC(=O)c2ccccc2NC(=O)c2ccccc2)n1,"inconclusive: 6.51 µM [inhibitor, partial curve]",
CC(C)c1ccc(C(=O)CSc2n[nH]c(-c3ccncc3)n2)cc1,inactive,
O=C(NCc1ccc(F)cc1)c1cccc2c1C(=O)c1ccc(N3CCC(Cc4ccccc4)CC3)cc1S2(=O)=O,"inconclusive: 1.3 µM [inhibitor, partial curve]",

Compound,Potency,"activity change, negative = growth inhibition"
COc1ccc(S(=O)(=O)N2CCCCCC2)cc1C(=O)N(C)Cc1ccco1,active: 25.9 µM,
CCN1CCN(S(=O)(=O)c2ccc3c4c(cccc24)C(=O)N3CC)CC1,"inconclusive: 29.1 µM [inhibitor, partial curve, poor fit]",
CC(Oc1ccc(Br)cc1)c1nc2c3ccccc3nc(=S)n2[nH]1 (configuration not stated),"inconclusive: 10.3 µM [inhibitor, partial curve, poor fit]",
CCOC(=O)c1[nH]c(C)c(CCC(=O)N2CCN(c3ccccc3)CC2)c1C,"inconclusive: 25.9 µM [inhibitor, single point]",
Cc1cccc(N2C(=O)CC(Sc3nccc(C)n3)C2=O)c1 (configuration not stated),"inconclusive: 29.1 µM [inhibitor, single point]",
Cc1cc(-c2csc(NC(=O)c3ccc(S(=O)(=O)N(C)C)cc3)n2)c(C)n1-c1ccccc1,"inconclusive: 18.4 µM [inhibitor, single point]",
CCN(c1ccccc1)S(=O)(=O)c1nnc(NC(=O)COc2ccc(OC)cc2)s1,inactive,
CC1Sc2ccc(S(=O)(=O)N3CCN(c4ccccc4)CC3)cc2NC1=O (configuration not stated),"inconclusive: 29.1 µM [inhibitor, single point]",
Cc1cccc2c(=O)c(Br)c(C)n(Cc3ccccc3)c12,inactive,
CCOC(=O)c1c(C)oc2nc(C)nc(NCC3CCN(Cc4ccc(Cl)cc4)CC3)c12,"inconclusive: 29.1 µM [inhibitor, single point]",
CCOc1ccc(C(=O)/C=C/c2cc(OC)c(OC)c(OC)c2)cc1,active: 10.3 µM,
COc1cc(-c2nc(-c3cccc(C)c3)no2)cc(OC)c1OC,active: 18.4 µM,
CC(=O)NCCNC(=O)CCCc1nnc2n(CCC(C)C)c(=O)c3sccc3n12,inactive,
CCOc1ccc(-n2c(Cc3ccccc3)nnc2SCc2nc(-c3ccccc3C)no2)cc1,"inconclusive: 29.1 µM [inhibitor, single point]",
CCOC(=O)c1c(C)[nH]c(CCC(=O)NCCCN2CCN(c3cccc(Cl)c3)CC2)c1C,active: 13 µM,
CCc1sc(C(=O)Nc2cc(S(=O)(=O)N3CCOCC3)ccc2OC)cc1C,inactive,
O=C(Nc1ccc(Cl)cc1)Nc1cc(S(=O)(=O)N2CCOCC2)ccc1N1CCCC1,"inconclusive: 29.1 µM [inhibitor, single point]",
N#Cc1ccc(N2Cc3ccccc3C2=NC(=O)c2cccs2)cc1,inactive,
Cc1ccc(C)c(Cn2c(=O)c3c(nc4n3CCN4c3ccc(F)cc3)n(C)c2=O)c1,inactive,
CC(=O)c1ccccc1C(=O)N1CCCC(CNC(=O)c2ccccc2Cl)C1 (configuration not stated),"inconclusive: 23.1 µM [inhibitor, single point]",
Cc1cc(C)c(S(=O)(=O)N2CCOC2CNC(=O)C(=O)NCc2cccnc2)c(C)c1 (configuration not stated),inactive,
CCn1c(CN2CCC(C)CC2)nc2cc(NC(=O)c3ccccc3[N+](=O)[O-])ccc21,"inconclusive: 25.9 µM [inhibitor, single point]",
CCCCn1c(SCC(=O)Nc2nnc(C(C)C)s2)nc2c1c(=O)n(C)c(=O)n2C,active: 18.4 µM,
CCC(C)(C)NC(=O)CCCSc1nc2ccccc2s1,"inconclusive: 18.4 µM [inhibitor, single point]",

Compound,Potency,"activity change, negative = growth inhibition"
O=C(NCc1ccccn1)C(=O)Nc1cc2c3c(c1)CC(=O)N3CCC2,inactive,
Cn1nc(C(=O)OCC(=O)Nc2ccccc2OC(F)F)c2ccccc2c1=O,inactive,
C=COCCNC(=O)Nc1ccc(Cl)c(Cl)c1,inactive,
Cn1cc(C(c2ccccc2OCC(=O)O)c2cn(C)c3ccccc23)c2ccccc21,active: 11.6 µM,
COC(=O)c1cccc(NC(=O)C(C)(C)C)c1,inactive,
O=C(NC1(C(F)(F)F)NC(=O)N(Cc2cccnc2)C1=O)c1ccccc1Cl (configuration not stated),inactive,
O=C(OCc1cn([C@@H]2C[C@H](c3ccc(Cl)cc3)N(CC3CCCCC3)C[C@H]2O)nn1)c1ccccc1,"inconclusive: 29.1 µM [inhibitor, single point]",
COc1cccc(NC(=O)c2ccc(-c3ccccc3[N+](=O)[O-])o2)c1,"inconclusive: 0.517 µM [inhibitor, full curve]",
CC(NC1CCN(Cc2ccccc2)CC1)c1ccc(F)cc1 (configuration not stated),"inconclusive: 29.1 µM [inhibitor, single point]",
CCc1cccc(CC)c1N(COC)C(=O)Cn1c(C(C)O)nc2ccccc21 (configuration not stated),"inconclusive: 29.1 µM [inhibitor, single point]",
CCS(=O)(=O)N1CCc2cc(C(=O)N3CCN(c4cccc(C(F)(F)F)c4)CC3)ccc21,"inconclusive: 18.4 µM [inhibitor, single point]",
COc1ccc(-c2csc(NC(=O)C3CSC4(C)CCC(=O)N34)n2)c(OC)c1 (configuration not stated),"inconclusive: 29.1 µM [inhibitor, single point]",
Oc1cccc(C(Nc2ccccn2)c2ccc3cccnc3c2O)c1Cl (configuration not stated),active: 0.651 µM,
CCOC(=O)N1CCN(CCC(=O)Nc2ccc(C)c(Br)c2)CC1,"inconclusive: 18.4 µM [inhibitor, single point]",
CCOC(=O)Nc1ccc2c(CN3CCN(S(=O)(=O)c4ccccc4)CC3)cc(=O)oc2c1,active: 13 µM,
CCn1c2ccccc2c2n[nH]c(=S)nc21,inactive,
CCn1nc(C)cc1C(=O)Sc1cccc(Br)c1,active: 3.66 µM,
Nc1ccc2c(=O)[nH][nH]c(=O)c2c1,inactive,
COc1ccc(N2CCN(c3nc(Cl)nc(N4CCOCC4)n3)CC2)cc1,,inconclusive: -31.6% [inhibitor]
O=C(NCc1ccccn1)c1cc(-n2cnnc2)ccc1Cl,inactive,
CCOC(=O)C1CCN(C(=O)c2c(-c3c(Cl)cccc3Cl)noc2C)CC1,inactive,
COc1ccc2c(c1)C(C)=CC(C)(C)N2S(=O)(=O)c1ccc(C)cc1,active: 5.8 µM,
CC1CCCC(NC(=O)C2CC(=O)N(Cc3ccccc3)C2)C1C (configuration not stated),inactive,
COc1cccc(-c2ccc(NC(=O)C3CCCN(Cc4ccco4)C3)cc2)c1 (configuration not stated),"inconclusive: 29.1 µM [inhibitor, single point]",

# Reference: PubChem BioAssay AID686979 (National Center for Advancing Translational Sciences (NCATS), 2013)
